Reference: article PMC6451091
The list shows a part of the results. For part of these data: At the low end of the ranking the order means little. For part of these data: Measured with an extract: partners may take part in the binding.

What was measured:
Details in all cases: 20 mM HEPES pH 7.9, 100 mM NaCl, 1 mM DTT, 0.2 mg/mL BSA, 0.02% Triton X-100, 2% milk, 0.4 mg/mL salmon testes DNA; 1 h; temperature not stated; high values mean tight binding; double strand, one strand shown; sequences stand for … in GCCTAGCAC…GTGCTAGGTCTTGATTCGCTTGACGCTGCTG
PU.1 (IVT) = PU.1 (IVT) (UniProt P17947); assay: protein-binding microarray (PBM)
[1] = molecular target: PU.1 (endogenous, THP-1 nuclear extract) (UniProt P17947); assay: nuclear extract protein-binding microarray (nextPBM)
[2] = molecular target: T1, FLI1 (endogenous, THP-1 nuclear extract) (UniProt Q01543); assay: as above
T1 sequence: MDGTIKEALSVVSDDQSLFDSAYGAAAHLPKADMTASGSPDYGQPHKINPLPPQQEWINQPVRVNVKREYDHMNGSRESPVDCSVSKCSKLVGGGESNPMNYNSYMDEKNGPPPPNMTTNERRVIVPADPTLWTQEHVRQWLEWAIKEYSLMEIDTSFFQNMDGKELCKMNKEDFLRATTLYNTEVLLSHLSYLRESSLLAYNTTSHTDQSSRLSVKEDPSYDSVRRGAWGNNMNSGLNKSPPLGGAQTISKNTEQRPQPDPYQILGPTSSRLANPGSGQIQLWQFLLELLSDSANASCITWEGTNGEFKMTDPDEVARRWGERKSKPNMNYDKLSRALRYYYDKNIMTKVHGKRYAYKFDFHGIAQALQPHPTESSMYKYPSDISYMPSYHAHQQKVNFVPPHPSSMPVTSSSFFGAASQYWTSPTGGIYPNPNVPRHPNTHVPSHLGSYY

Row | Sequence | binding signal (PU.1 (IVT)) [z-score] | binding signal [1] [z-score] | binding signal [2] [z-score]
1 | CGAAAGAGGAAGTAGAAACA | 7.76 | 7.42 | 3.59
2 | GGAAAGAGGAAGTCAAATTG | 7.8 | 7.34 | 4.11
3 | GGAAAGAGGAACTGACAACA | 6.19 | 6.51 | 2.63
4 | GGAAAGGGGAAGTGGGTTAA | 7.25 | 7.01 | 3.83
5 | GAAAAGAGGAAGTCACATTA | 8.62 | 7.56 | 4.74
6 | AAAAAGAGGAAGTGCACAAG | 8.64 | 7.22 | 4.26
7 | CAGATGAGGAACTGACTTAA | 4.12 | 4.18 | 1.33
8 | CTAAGAAGGAAGTGCTGACA | 3.02 | 2.83 | 1.89
9 | GATAGGAGGAAGTCCTCTGT | 4.43 | 4.4 | 2.35
10 | TGGGAAAGGAAGTGATAAGT | 2.29 | 1.98 | 2.5
11 | GGAAACAGGAAGTGATTGCT | 7.36 | 7.09 | 5.6
12 | CATCAGAGGAAGTGAATAAA | 2.99 | 3.05 | 2.44
13 | CGAAAGGGGCAGTGCTAAAC | -0.257 | -0.43 | -0.0247
14 | TAAGTGGGGAAGTGAGACAA | 2.84 | 2.73 | 1.1
15 | ACAAAAAGGAACTGTTCCCC | 2.27 | 1.86 | 1.14
16 | GAAAAAAGGAAGTAGTATAA | 6.96 | 6.63 | 3.15
17 | GAAGAAGGGAAGTGGAAGAA | 3.41 | 2.97 | 2.03
18 | GAAAAGAGGAAGTCACATTG | 8.32 | 7.37 | 4.21
19 | CAAATGACGAACTGATGCGG | 0.0688 | 0.263 | 0.0726
20 | GAAAACAGGAAGTCTAAAGG | 7.3 | 6.63 | 4.54
21 | TAAAACAGGAAGTGAGAGGG | 6.94 | 6.98 | 5.22
22 | AAAAAGAGGAAGTCCTATTT | 8.54 | 7.4 | 4.28
23 | AAGAACAGGAAGTGGGACAT | 5.16 | 6.36 | 4.9
24 | CAAAAGAGGAAGTCCTCAAG | 7.96 | 7.33 | 4.2

Row | Sequence | binding signal (PU.1 (IVT)) [z-score] | binding signal [1] [z-score] | binding signal [2] [z-score]
25 | GAAAAGAGGAACTGGACCCT | 7.24 | 6.89 | 2.94
26 | TAAAAGAGGAAGTGAATGGG | 8.3 | 7.35 | 4.13
27 | CAGAATAGGAAGTGGAGAAT | 2.91 | 3.41 | 2.34
28 | CCAGAGAGGAACTGGAGGAG | 1.65 | 2.32 | 0.963
29 | AAGAAGAGGAAGTGGTTTGT | 7.35 | 7.06 | 3.7
30 | AGAGGAAGGAAGTGGCTATG | 2.27 | 2.44 | 2.19
31 | AGGCTGAGGAAGTGGGATCT | 2.87 | 2.71 | 1.96
32 | CAGAAAGGGAAGTCAGAGAG | 3.53 | 4.09 | 1.76
33 | GAAAGGAGGAAGTACTGTGG | 6.78 | 6.71 | 3.42
34 | AGAAAGTGGAAGTGGGAGGG | 3.27 | 3.35 | 1.77
35 | ACAAAAAGGAACTGAGCCCC | 1.98 | 2.16 | 0.761
36 | TTGAAAGGGAAGTGCTGTTA | 3.74 | 3.56 | 2.14
37 | TCTAAGAGGAAGTGAAAATG | 4.99 | 6.16 | 3.1
38 | GGCGGGAGGAAGTGCTCCAT | 2.93 | 3.11 | 2.66
39 | CAAAAAGGGTAGTGGATGCT | 1.25 | 1.29 | 0.201
40 | GATAAGAGGAAGTTCTCTGT | 6.77 | 6.77 | 3.47
41 | GAAAAGAGGAACAGGCCTGA | 4.62 | 5 | 1.24
42 | CAAGTGAGGAACTGATGCGG | 2.17 | 1.87 | 0.54
43 | CAAATGAGGAAGTCATTTGT | 7.84 | 7.45 | 3.54
44 | CCTGAGAGGAAGTGATGTTC | 4.31 | 4.13 | 3.03
45 | TGAAAGGGGAAGTGCAACCA | 7.1 | 7.08 | 2.86
46 | ATGGGGAGGAAGTGGTAAGA | 2.95 | 2.95 | 2.84
47 | AGGTTGAGGAAGTGAATTCT | 4.62 | 4.52 | 2.46
48 | GATGAGAGGAAGTCCTCTGT | 3.77 | 3.25 | 2.2

Row | Sequence | binding signal (PU.1 (IVT)) [z-score] | binding signal [1] [z-score] | binding signal [2] [z-score]
49 | AAAATGAGGAACTAGCGAAA | 6.87 | 6.87 | 2.22
50 | AGGGAGAGGAAGTGAGTCGT | 4.06 | 4.04 | 2.89
51 | ATTTAGAGGAAGTGGGTGGG | 5.09 | 5.9 | 2.88
52 | GAAAACAGGAAGGCCCATAG | 2.91 | 3.05 | 2.16
53 | GAATGAAGGAAGTGGAAGTC | 4 | 3.93 | 2.57
54 | AATAAGAGGAAGTCCCTATG | 6.25 | 6.49 | 3.07
55 | GCAAAGGGGAAGTGGTCAGA | 6.17 | 6.54 | 3.07
56 | GAAAAGAGGAAGTGTGAGAT | 8.2 | 7.45 | 4.53
57 | GCAAACAGGAAGTAGAGGAC | 5.63 | 6.18 | 4.99
58 | CCAGAGGGGAACTGAACAAG | 1.91 | 1.86 | 0.709
59 | AAAAAAAGGAACTGCAGACC | 4.74 | 4.35 | 1.17
60 | CGAAAGAGGAAGTGCAACCA | 7.64 | 7.07 | 4.31
61 | AAAAAAGGGAAGTGCATTTG | 8.12 | 7.06 | 3.51
62 | GAAATGAGGAACTGGATCTT | 6.39 | 6.86 | 2.58
63 | CAAAAGAGGAAGAGAATCAG | 5 | 5.6 | 1.9
64 | TTAAAGAGGAAGAGCATCTT | 3.21 | 3.31 | 1.51
65 | ACCAAAAGGAACTGTGCCCC | 0.337 | 0.85 | 0.424
66 | CAAAAAGGGCAGTGGATGCT | 0.235 | -0.0128 | 0.175
67 | AGAAAGAGGAAGTCAAACCA | 7.76 | 7.21 | 4.15
68 | GATAAGAGGAATTCCTCTGT | 1.24 | 0.778 | 0.479
69 | AGGAAGAGGAAGTGCTCTGG | 6.41 | 6.63 | 4.04
70 | TCTAAAAGGAAGTGGTGAAT | 3.1 | 2.86 | 2.66
71 | AAAAAAAGGAAGTGGGAGCT | 6.02 | 6.53 | 2.99
72 | TCATTAAGGAAGTGAGAGAA | 3.83 | 3.73 | 2.39

Row | Sequence | binding signal (PU.1 (IVT)) [z-score] | binding signal [1] [z-score] | binding signal [2] [z-score]
73 | CAAAAAGGGAAGAGGATGCT | 3.05 | 3.02 | 1.56
74 | TGAAAGAGGAAATGGGAGAT | 3.56 | 4 | 2.77
75 | AAAAACAGGAAGAGAACCTG | 4.26 | 5.07 | 2.61
76 | CAGAAGGGGAAGCGGAGCTG | 2.6 | 2.76 | 1.56
77 | GGAGGAGGGAAGTGCTGAGT | 2.42 | 2.47 | 1.35
78 | TCTCTGAGGAAGTGAGAGAC | 2.46 | 2.69 | 1.53
79 | AATAAGGGGAAGTCGTGTCT | 5.43 | 6.08 | 2.43
80 | GATAATAGGAAGTCCTCTGT | 3.3 | 2.8 | 1.9
81 | AAGAAGAGGAAGTGAGTGCT | 7.09 | 6.79 | 4.3
82 | AAAATGAGGAAGTGCTGGCA | 8.14 | 7.45 | 4.04
83 | ATTTTAGGGAACTACTGTGC | 4.61 | 4.74 | 1.18
84 | CCAAAGAGGAAGTGAATATG | 6.98 | 6.82 | 3.78
85 | AGGAAGGGGAAGTTCAGTGA | 5.81 | 6.34 | 2.84
86 | TGTAAGGGGAAGTGAGAAGA | 4.5 | 5.36 | 2.24
87 | ACAGGAAGGAAGTGGCCAGA | 2.07 | 2.24 | 2.95
88 | CAGAAAAGGAAGTATATGGG | 4 | 3.33 | 2.28
89 | AAAAGGAGGAAGTGATCAAA | 6.28 | 6.56 | 3.45
90 | AGAAAGAGGAAATGGGTTTA | 5.62 | 5.89 | 3.19
91 | CAAATGAGCAACTGATGCGG | -0.716 | -0.331 | -0.862
92 | AAATTGAGGAAGTGCAGAGA | 7.31 | 7.14 | 3.33
93 | AGAAAAGGGAAGCGGTCTGT | 4.32 | 4.43 | 1.93
94 | ACCAGGAGGAAGTGGTTGCA | 4.06 | 4.37 | 2.5
95 | CGTGAGAGGAAGTGGGGGGT | 3.86 | 3.94 | 2.85
96 | ACAAAAAGGTACTGTGCCCC | 0.32 | 0.164 | -0.672

Row | Sequence | binding signal (PU.1 (IVT)) [z-score] | binding signal [1] [z-score] | binding signal [2] [z-score]
97 | AAAAAAAGGAAGTGCCACTA | 6.38 | 6.57 | 2.97
98 | GAAAGAGGGAAGTGGGCATA | 4.48 | 5.03 | 1.92
99 | GAAAACAGGAAGTCCCATAT | 7.09 | 7.16 | 4.66
100 | CCTTTGGGGAAGTGGTTAAG | 4.15 | 4.61 | 1.85
101 | GAGGAGGGGAAGTGAAATAT | 3.64 | 3.73 | 2.32
102 | GAAATGGGGAAGTCCCTGTT | 6.88 | 6.72 | 2.53
103 | ACAAAAAGAAACTGTGCCCC | -0.593 | -0.484 | -0.526
104 | TAGATGAGGAAATGAAACAT | 2.65 | 2.81 | 1.95
105 | CAGATGAGGAAGTGATGCTT | 5.97 | 6.54 | 2.45
106 | GGAAAGGGGAAGTGGCAGGG | 7.13 | 7.22 | 2.88
107 | CAATAGAGGAAGTGGCAGTG | 6.24 | 6.27 | 3.36
108 | AAAAACAGGAAGTGGCCGGC | 7.9 | 7.34 | 5.13
109 | GTAAAGAGGAAGTGCCCTAG | 7.1 | 6.69 | 3.59
110 | GAAAAAAGGAAGTGGGCAGC | 5.86 | 6.34 | 3.02
111 | CAAAAACGGAAGTGGATGCT | 6.22 | 6.66 | 4.67
112 | AGAAACAGGAAGTGATTTAC | 7.72 | 7.3 | 5.82
113 | CTAATGGGGAAGTGCCACAC | 4.33 | 5.51 | 1.65
114 | CAAAAGCAGAAGTGAGCTTT | 5.61 | 6.56 | 2.4
115 | AGAAAAAGGAAGTGACATAC | 6.03 | 6.17 | 3.25
116 | GAAAACAGGAAGTGGGGATG | 7.43 | 7.02 | 5.41
117 | AGGAAGGGGAAGTGGAGATT | 5.33 | 5.95 | 3
118 | AAAAGGAGGAAGTCCTTGCC | 6.56 | 6.7 | 2.78
119 | TTGGTCAGGAAGTGTCAGAG | 0.801 | 1.06 | 2.89
120 | AAGATGAGGAAGTGCCCTCT | 6.02 | 6.62 | 2.75
